Test results published in patent US20070065447A1.
Results are given in words; binding and its absence hold for the method and conditions named. Some results given as binding are weak or reduced against the parent protein; the word gives no strength. For some assays here: Tags and fused reporters may be left off the sequences shown.

T1: GST-γ2III-4 (a.a. residues 392-494) (human) (UniProt Q13753)
T1 sequence: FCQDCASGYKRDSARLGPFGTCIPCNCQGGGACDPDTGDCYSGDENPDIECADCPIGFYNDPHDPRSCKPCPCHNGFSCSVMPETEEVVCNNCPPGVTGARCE

T2: GST-γ2III-2 (a.a. residues 392-555) (human) (UniProt Q13753)
T2 sequence: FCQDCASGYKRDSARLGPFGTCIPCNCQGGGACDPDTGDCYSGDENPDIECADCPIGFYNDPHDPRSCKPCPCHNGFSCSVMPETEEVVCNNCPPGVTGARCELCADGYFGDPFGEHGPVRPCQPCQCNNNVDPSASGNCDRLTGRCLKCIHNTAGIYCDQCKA

T3: cyclic peptide X252 (Ln-5 residues 394-415 + R) (human)
T3 sequence (peptide, Cys-Cys disulfide bond (cyclic peptide)): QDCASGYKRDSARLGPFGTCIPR

T4: GST-γ2III-20 (a.a. residues 461-534) (human) (UniProt Q13753)
T4 sequence: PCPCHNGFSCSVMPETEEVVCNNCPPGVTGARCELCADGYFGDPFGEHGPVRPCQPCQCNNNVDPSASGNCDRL

T5: GST-γ2III-7 (a.a. residues 461-653) (human) (UniProt Q13753)
T5 sequence: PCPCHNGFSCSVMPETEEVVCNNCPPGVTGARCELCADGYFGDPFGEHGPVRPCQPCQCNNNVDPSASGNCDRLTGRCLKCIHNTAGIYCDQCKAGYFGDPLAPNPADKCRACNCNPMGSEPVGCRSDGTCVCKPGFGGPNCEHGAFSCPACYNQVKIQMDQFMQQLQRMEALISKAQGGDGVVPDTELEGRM


Columns and labels:
[1] = molecular target: T1, GST-γ2III-4 (a.a. residues 392-494) (human); experiment: direct ELISA of Example 3, signal as % of the signal on GST-γ2III 392-567 (100 %)
[2] = molecular target: T2, GST-γ2III-2 (a.a. residues 392-555) (human); experiment: as above
[3] = molecular target: GST-γ2III fusion protein (glutathione S-transferase:γ2 DIII fragment fusion protein, human laminin γ2 amino acid residues 392-567) (human); experiment: as above
[4] = molecular target: T3, cyclic peptide X252 (Ln-5 residues 394-415 + R) (human); experiment: direct ELISA on coated cyclic peptides
[5] = molecular target: GST-γ2III fusion protein (glutathione S-transferase:γ2 DIII fragment fusion protein, human laminin γ2 amino acid residues 392-567) (human); experiment: surface plasmon resonance (BIAcore): first step to about 940 RU, then LN-5 antigen (GST-γ2DIII) at 20, 50, 200, 500 and 2000 nM
[6] = molecular target: T3, cyclic peptide X252 (Ln-5 residues 394-415 + R) (human); experiment: direct ELISA on coated cyclic peptides (legend of FIG. 9)
[7] = molecular target: GST-γ2III fusion protein (glutathione S-transferase:γ2 DIII fragment fusion protein, human laminin γ2 amino acid residues 392-567) (human); experiment: direct ELISA, 100 ng/well coated GST-γ2III
[8] = molecular target: GST-γ2III fusion protein (glutathione S-transferase:γ2 DIII fragment fusion protein, human laminin γ2 amino acid residues 392-567) (human); experiment: surface plasmon resonance (BIAcore): LN-5 antigen (GST-γ2DIII) at 20, 50, 200, 500 and 2000 nM ('Ag binding')
[9] = molecular target: T1, GST-γ2III-4 (a.a. residues 392-494) (human); experiment: direct ELISA, 100 ng/well coated GST-γ2III fragment
[10] = molecular target: T2, GST-γ2III-2 (a.a. residues 392-555) (human); experiment: as above
[11] = molecular target: GST-γ2III fusion protein (glutathione S-transferase:γ2 DIII fragment fusion protein, human laminin γ2 amino acid residues 392-567) (human); experiment: SPR (BIAcore)
[12] = molecular target: T1, GST-γ2III-4 (a.a. residues 392-494) (human); experiment: direct ELISA, fusion proteins coated at 100 ng/well, A405 (Example 3, first experiment)
[13] = molecular target: T2, GST-γ2III-2 (a.a. residues 392-555) (human); experiment: as above
[14] = molecular target: GST-γ2III fusion protein (glutathione S-transferase:γ2 DIII fragment fusion protein, human laminin γ2 amino acid residues 392-567) (human); experiment: as above
[15] = molecular target: T1, GST-γ2III-4 (a.a. residues 392-494) (human); experiment: direct ELISA, fusion proteins coated at 100 ng/well, A405 (Example 3, second experiment)
[16] = molecular target: T2, GST-γ2III-2 (a.a. residues 392-555) (human); experiment: as above
[17] = molecular target: GST-γ2III fusion protein (glutathione S-transferase:γ2 DIII fragment fusion protein, human laminin γ2 amino acid residues 392-567) (human); experiment: as above
[18] = molecular target: GST-γ2III fusion protein (glutathione S-transferase:γ2 DIII fragment fusion protein, human laminin γ2 amino acid residues 392-567) (human); experiment: direct ELISA, peptide coated at 50 µg/ml (controls 5 µg/ml), antibody 100 ng/well, A450/620, mean of three ± SD
[19] = molecular target: T3, cyclic peptide X252 (Ln-5 residues 394-415 + R) (human); experiment: as above
[20] = molecular target: GST-γ2III fusion protein (glutathione S-transferase:γ2 DIII fragment fusion protein, human laminin γ2 amino acid residues 392-567) (human); experiment: competition ELISA on coated GST-γ2III; biotinylated 4G1 0.05 µg/well, unlabeled competitor mAb 5 µg/well; % of the well without competitor
[21] = molecular target: GST-γ2III fusion protein (glutathione S-transferase:γ2 DIII fragment fusion protein, human laminin γ2 amino acid residues 392-567) (human); experiment: competition ELISA on coated GST-γ2III (0.25 µg/well); biotinylated mAb 0.05 µg/well, unlabeled competitor mAb 5 µg/well; A405 as % of the well without competitor
[22] = molecular target: T4, GST-γ2III-20 (a.a. residues 461-534) (human); experiment: direct ELISA of Example 3, signal as % of the signal on GST-γ2III 392-567 (100 %)
[23] = molecular target: T5, GST-γ2III-7 (a.a. residues 461-653) (human); experiment: as above
[24] = molecular target: GST-γ2III fusion protein (glutathione S-transferase:γ2 DIII fragment fusion protein, human laminin γ2 amino acid residues 392-567) (human); experiment: competition ELISA on coated GST-γ2III; competitor of biotinylated mAb 5D5
[25] = molecular target: T4, GST-γ2III-20 (a.a. residues 461-534) (human); experiment: direct ELISA, 100 ng/well coated GST-γ2III fragment
[26] = molecular target: T5, GST-γ2III-7 (a.a. residues 461-653) (human); experiment: as above
[27] = molecular target: T5, GST-γ2III-7 (a.a. residues 461-653) (human); experiment: direct ELISA, fusion proteins coated at 100 ng/well, A405 (Example 3, first experiment)
[28] = molecular target: GST-γ2III fusion protein (glutathione S-transferase:γ2 DIII fragment fusion protein, human laminin γ2 amino acid residues 392-567) (human); experiment: surface plasmon resonance (BIAcore): first step to about 1000 RU, then LN-5 antigen (GST-γ2DIII) at 20, 50, 200, 500 and 2000 nM ('Ag binding')
[29] = molecular target: T4, GST-γ2III-20 (a.a. residues 461-534) (human); experiment: direct ELISA, fusion proteins coated at 100 ng/well, A405 (Example 3, second experiment)
[30] = molecular target: T5, GST-γ2III-7 (a.a. residues 461-653) (human); experiment: as above

Row | binding [1] | binding [2] | binding [3] | binding [7] | binding [10] | binding [11] | binding [12] | binding [13] | binding [14] | binding [15] | binding [16] | binding [17] | binding [18] | binding [21] | Binder | other results
1 | binds | binds | binds | binds | binds | binds | binds | binds | binds | binds | binds | binds | binds | binds | mAb 4G1 (antibody, V domains shown) VH: EVKLEESGGGLVQPGGSMKLSCVASGFTFSNFWMNWVRQSPEKGLEWVAEIRLKSNNYATHYAESLKGRFTISRDDSKSNVYLQMNNLRPEDTGIYYCTRDYYGSSFAYWGQGTLVTVSA VL: DIVMTQAAFSNPVTLGTSASISCRSSKSLLHNIGITYLFWYLQKPGQSPQLLIYQMSKLASGVPDRFSGSGSGTDFTLRISRVEAEDVGIYYCAQNLELPPTFGSGTKLEIK | binding [4]: binds; binding [5]: binds; binding [6]: binds; binding [8]: binds; binding [9]: binds; binding [19]: binds; binding [20]: binds
2 | no binding | binds | binds | binds | binds | binds | no binding | binds | binds | no binding | binds | binds | binds | binds | mAb 6C12 (antibody, V domains shown) VH: DVHLQESGPGLVKPSQSLSLTCTVTGYSITSDYAWNWIRQFPGNRLEWMGYITYSGGTNYNPSLKSRISFTRDTSKNQFFLQLNSVTTEDTATYYCANNFYGNFFDYWGQGTTLTVSS VL: QIVLTQSPAIMSASPGEKVTMTCSASSSVSYIHWYQQKSGTSPKRWIYDTSKLASGVPARFSGSGSGTSYSLTISSMQAEDAATYYCQQWSSSPPTFGGGTKLEIK | binding [22]: binds; binding [23]: binds; binding [24]: binds; binding [25]: binds; binding [26]: binds; binding [27]: binds; binding [28]: binds; binding [29]: binds; binding [30]: binds
